# In PubChem BioAssay AID463173 (ICCB-Longwood Screening Facility, Harvard Medical School, 2010):
# The campaign covered roughly 52,000 compounds. About 1,700 (3.3%) were called active. Rule as the data show it: active = survival mostly below about 52% (no sharp cut-off); inactive = mostly above about 56%. The list shows a part of the results.
# Tested on: Wild type
# Assay: S. aureus survival, RN4220 and DeltatarO strains – OD600, teichoic acid synthesis inhibitors, primary screen (AID 463173)
# Details: S. aureus RN4220 wild type/DeltatarO growth, OD600, 18 h, stronger effect = lower value, screened at 18.75 µg/mL (by protocol)
row,Structure (SMILES),survival
1,Cc1ccc(/C=C/c2onc(C)c2S(=O)(=O)N2CCC(C(=O)NCc3ccc(C)o3)CC2)cc1,inactive: 152%
2,CCc1nnc(SCc2nc(-c3ccc(OC)c(OC)c3)oc2C)c2cc3sc(C)cc3n12,inactive: 77%
3,COc1cccc(CNC(=O)Cc2ccc(NC(=O)N3CCCCc4ccccc43)cc2)c1OC,inactive: 54%
4,Cc1cc(C)cc(N2C(=O)CSC23C(=O)N(CC(=O)NCCc2ccccc2)c2ccccc23)c1 (stereo not drawn),inactive: 68%
5,CC(C)Oc1ccc(CNC(=O)CN2C(=O)CCc3cc(S(=O)(=O)N4CCCCC4)ccc32)cc1,inactive: 79%
6,Cc1ccc(CSCc2ccc(C(=O)NCCc3ccc(Cl)cc3)o2)cc1,inactive: 73%
7,COc1ccc(NC(=O)CCS(=O)(=O)c2cccc3nonc23)cc1Cl,inactive: 83%
8,CCOC(=O)C1=C(CS(=O)(=O)c2ccc(C)cc2)NC(=O)NC1c1ccc(C(C)C)cc1 (stereo not drawn),inactive: 82%
9,CN(C(=O)c1ccc2c(c1)N(Cc1cccc(Cl)c1)C(=O)c1ccccc1S2=O)C1CCCCC1 (stereo not drawn),inactive: 95%
10,CC(=O)Oc1ccc(C(=O)NC2CCSC2=O)cc1 (stereo not drawn),inactive: 100%
11,O=c1[nH]c2ccccc2cc1CNc1ccccc1,inactive: 101%
12,Cc1oc2ncn(C)c(=O)c2c1C(=O)NC(C)c1ccccc1 (stereo not drawn),inactive: 129%
13,COc1ccccc1NCc1cccn1-c1nnc(N2CCOCC2)s1,inactive: 110%
14,NC(N)=Nc1nc2cc(Cl)ccc2o1,inactive: 114%
15,Cc1ccc(C)c(CN2C(=O)CSc3ccc(C(=O)NCc4ccc(F)cc4)cc32)c1,inactive: 79%
16,O=C(CSC1=Nc2ccccc2N=C(c2ccc(F)cc2)C1)NCc1ccc(F)cc1,inactive: 83%
17,CCS(=O)(=O)N1CCc2cc(C(=O)Nc3cccc(Cl)c3C)ccc21,inactive: 89%
18,O=C(c1cccc(Br)c1)N1CCN(Cc2cc(=O)n3nc(-c4ccccc4)sc3n2)CC1,inactive: 84%
19,CCC(=O)N1c2nc(-c3ccco3)nn2C2(CCCCC2)[C@@H]2CCCC[C@@H]21,inactive: 128%
20,Cc1ccc(CSc2nc3cccnc3n2Cc2ccc(C(=O)NCCc3ccccc3)cc2)cc1,inactive: 65%
21,O=C(CN1C2=NCCN2c2ccccc21)C12CC3CC(CC(C3)C1)C2,inactive: 98%
22,CCOc1c(Cl)cc(Cl)cc1CNCCSc1nnnn1C,inactive: 116%

row,Structure (SMILES),survival
1,COc1ccc(N2CCN(C(CNC(=O)C(=O)NCCCN(C)C)c3cccnc3)CC2)cc1 (stereo not drawn),inactive: 84%
2,O=C(Nc1cc2c(cc1C(=O)c1ccccc1Cl)OCCO2)c1ccc(Br)cc1,inactive: 73%
3,Cc1nc2c(-c3ccccc3)c(C)nn2c(C)c1CCC(=O)NCc1ccccc1Cl,inactive: 83%
4,CCOC(=O)c1[nH]c(C)c(Cc2ccc(OCC)cc2)c1C,inactive: 111%
5,Cc1ccc(-n2nnnc2CNC(=O)c2ccccc2S(C)(=O)=O)cc1C,inactive: 83%
6,FC(F)(F)c1cc(-c2ccccc2)nc2cc(-c3ccc(Br)cc3)nn12,inactive: 67%
7,COc1ccc(-c2cn3nc(N4CCCC(C(=O)Nc5ccc(C)c(C)c5)C4)sc3n2)cc1 (stereo not drawn),inactive: 65%
8,O=C(CCC(=O)OCC(=O)c1ccc(Cl)cc1)Nc1ccc(Oc2ccccc2)cc1,inactive: 129%
9,O=S(=O)(CCc1nc2ccccc2s1)c1ccc(Cl)cc1,inactive: 88%
10,CCc1ccc2occ(CC(=O)Nc3c(C(=O)Nc4ccc(C)cc4)oc4ccccc34)c2c1,inactive: 114%
11,COC(=O)c1c(SCC(=O)Nc2cc(C)cc(C)c2)[nH]c2ccccc2c1=O,inactive: 40%
12,Cn1c(C(=O)N(Cc2ccccc2)Cc2cccs2)cc2sccc21,inactive: 120%
13,CCCn1cc(S(=O)(=O)c2cc(C)ccc2C)c(=O)c2cc(F)c(N3CCOCC3)cc21,inactive: 135%
14,Cc1ccc(C(=O)n2nc(C)c(S(=O)(=O)N3CCOCC3)c2C)cc1,inactive: 85%
15,CCCNc1ncnc2onc(C)c12,inactive: 74%
16,O=C(O)CCC1(CCC(=O)O)CCCCC1=O,inactive: 108%
17,Cc1cc(S(=O)(=O)Nc2ccc(-c3ccc(N4CCCCC4)nn3)cc2)c(C)cc1Cl,inactive: 133%
18,COc1cccc(-c2nn(C)c3sc(C(=O)NCCc4ccc(Cl)cc4)cc23)c1,inactive: 86%
19,O=C(NCc1ccco1)C(c1ccccc1)N(Cc1ccco1)C(=O)Cn1nnc2ccccc21 (stereo not drawn),inactive: 113%
20,CC(C)c1cnc2c(c1SCC(=O)Nc1ccccc1C(F)(F)F)c(=O)n(C)c(=O)n2C,inactive: 86%
21,Cc1ccc(CSc2nc(-c3cccs3)ccc2C#N)cc1,inactive: 31%
22,Cc1cccc(N2CCN(c3cc(C)nc4c(-c5ccc(Cl)cc5)c(C)nn34)CC2C)c1 (stereo not drawn),inactive: 74%

row,Structure (SMILES),survival
1,Cc1nnc(SCc2ccc(Cl)cc2)c2cc3occc3n12,inactive: 28%
2,CCOc1ccc(NC(=O)NCCCN2CCN(c3ccc(F)cc3)CC2)cc1,inactive: 67%
3,Cc1cccc(C)c1NC(=O)C(NS(=O)(=O)c1ccc2c(c1)CCC(=O)N2)c1ccccc1 (stereo not drawn),inactive: 74%
4,Cc1c2cnn(-c3ccccc3)c(=O)c2c(C)n1CCCC(=O)Nc1cc(F)ccc1F,inactive: 78%
5,COC(=O)c1nc2n(n1)C(c1cccc(Cl)c1)C(C(=O)Nc1ccccc1OC)=C(C)N2 (stereo not drawn),inactive: 140%
6,O=CNC1CCCc2c1[nH]c1ccccc21 (stereo not drawn),inactive: 110%
7,CCOc1ccc(NC(=O)CSc2ncc3c(n2)-c2ccc(Cl)cc2N(Cc2ccccc2)S3(=O)=O)cc1,inactive: 80%
8,COc1ccc(-c2nc3sc(CCNC(=O)c4cc(OC)c(OC)c(OC)c4)c(C)n3n2)cc1,inactive: 72%
9,COc1ccc(N2CCN(S(=O)(=O)c3ccc4oc(=O)c5ncn(C)c5c4c3)CC2)cc1,inactive: 80%
10,O=C(CSc1nc2ccccc2nc1Cc1ccc(Cl)cc1)N1CCc2ccccc21,inactive: 92%
11,Cc1ccc(-c2nc(C)c(CCNC(=O)c3ccco3)s2)cc1,inactive: 99%
12,CCc1ccc(CNC(=O)CN2C(=O)c3cccnc3Oc3ccc(Cl)cc32)cc1,inactive: 73%
13,CCN(c1cccc(C)c1)S(=O)(=O)c1nnc(NC(=O)C2CCCCC2)s1,inactive: 84%
14,O=C(CSC1=Nc2ccccc2C2=NC(CC(=O)NC3CCCCC3)C(=O)N12)Nc1ccc(F)cc1 (stereo not drawn),inactive: 71%
15,Cc1ccc(C)c(N2CCN(S(=O)(=O)c3cc(Br)cc4c3N(C(=O)C3CC3)CC4)CC2)c1,inactive: 134%
16,COc1ccc(C)cc1NC(=O)c1oc2ccc(S(=O)(=O)N3CCCCC3)cc2c1C,inactive: 66%
17,Cc1ccc(SCc2[nH]nc3c2C(c2ccoc2)C(C#N)=C(N)O3)cc1 (stereo not drawn),inactive: 108%
18,CCOc1ccc(C2c3[nH]c4ccccc4c3CCN2C(=O)CCc2ccccc2)cc1 (stereo not drawn),inactive: 136%
19,CCOc1ccc(CCNC(=O)c2sc3nc4n(c(=O)c3c2C)CCCC4)cc1OCC,inactive: 111%
20,CCOC(=O)c1ccc(NC(=O)CCn2c(=O)c3cccn3c3ccccc32)cc1,inactive: 107%
21,COc1cc(C(=O)NCCCc2nc3ccccc3n2CC(C)C)cc(OC)c1OC,inactive: 67%
22,O=C(C1CCN(S(=O)(=O)c2ccc(Br)s2)CC1)N1CCN(c2cccc(Cl)c2)CC1,inactive: 88%

row,Structure (SMILES),survival
1,Cc1ccc(Sc2c(C)nn(C(=O)COc3ccccc3Br)c2C)cc1,inactive: 90%
2,NC(=O)c1c(NC(=O)c2nc(SCc3ccccc3F)ncc2Cl)sc2c1CCCC2,inactive: 92%
3,CCOC(=O)c1c(NC(=O)c2ccc(S(=O)(=O)N3CCC(C)CC3)cc2)sc2c1CCN(C)C2,inactive: 132%
4,Cc1ccc2[nH]c(CSc3nnc(NC(=O)COc4ccccc4)s3)cc(=O)c2c1,inactive: 105%
5,O=C(Nc1nc2ccc(S(=O)(=O)N3CCCC3)cc2s1)c1cccc(F)c1,inactive: 63%
6,CCOC(=O)c1sc2ncn(CC(=O)Nc3ccc(N(C)C)cc3)c(=O)c2c1C,inactive: 89%
7,Cc1cc(C)cc(-n2ccnc2SCC(=O)Nc2nnc(C)s2)c1,inactive: 77%
8,CC(=O)Nc1ccc(C(=O)CSc2nnnn2C(C)C)cc1,inactive: 111%
9,CCN1CCN(CCC(=O)Nc2ccc(OC)cc2)CC1,inactive: 107%
10,CCOc1ccc2nc(N3CCCC(C(=O)Nc4c(C)cccc4C)C3)sc2c1 (stereo not drawn),inactive: 82%
11,COc1ccc(OC)c(CNC(=O)c2nn(-c3ccc(OC)c(Cl)c3)c(=O)c3c2c2ccccc2n3C)c1,inactive: 134%
12,O=C(O)CCNC(=O)c1ccc(Br)o1,inactive: 102%
13,CCS(=O)(=O)N1CCc2cc(C(=O)Nc3ccc(OC)c(Cl)c3)ccc21,inactive: 83%
14,CCCCn1cc(S(=O)(=O)c2ccc(C)c(C)c2)c(=O)c2cc(F)c(N3CCCC(C)C3)cc21 (stereo not drawn),inactive: 68%
15,COc1ccc(CCNC(=O)CCCn2c(=O)c3ccccc3n(Cc3cccc(Cl)c3)c2=O)cc1OC,inactive: 92%
16,Cc1ccc(-c2nc3scc(CCNC(=O)Cc4ccc(Cl)cc4)n3n2)cc1,inactive: 80%
17,CCOc1ccc(N(C(=O)CC(C)C)S(=O)(=O)c2ccc3c(c2)oc(=O)n3C)cc1,inactive: 85%
18,COc1ccc(CCNS(=O)(=O)c2ccc3c(c2)CC(C)N3C(=O)C2CCC2)cc1OC (stereo not drawn),inactive: 86%
19,CCOc1ccc(CC(=O)NCCc2csc(-c3ccc(C)cc3)n2)cc1,inactive: 72%
20,O=C(/C=C/c1ccccc1)N1CCN(CCN2C(=O)C3C4C=CC(C4)C3C2=O)CC1 (stereo not drawn),inactive: 124%
21,COc1ccc(S(=O)(=O)n2nc(C)c(S(=O)(=O)N3CCC(C)CC3)c2C)cc1C,inactive: 57%
22,CCC(=O)Nc1c(C(=O)N2CCN(c3ccc(F)cc3)CC2)oc2ccccc12,inactive: 82%
